The supplement of paper PMC3334620
Over roughly 33,000 sequences, “E-score (-0.5 to 0.5)” has its median near -0.041; the highest 2% begin near 0.37. This is one part of the list.

target: T1, Ecm22 (UniProt Q05958); experiment: PBM E-score (8-mer binding enrichment) (E-score (-0.5 to 0.5)); higher = stronger / more preferred TF binding; most listed sequences are background and not binding sites; conditions: protein concentration: 200 nM; construct: GST-full length
T1 sequence: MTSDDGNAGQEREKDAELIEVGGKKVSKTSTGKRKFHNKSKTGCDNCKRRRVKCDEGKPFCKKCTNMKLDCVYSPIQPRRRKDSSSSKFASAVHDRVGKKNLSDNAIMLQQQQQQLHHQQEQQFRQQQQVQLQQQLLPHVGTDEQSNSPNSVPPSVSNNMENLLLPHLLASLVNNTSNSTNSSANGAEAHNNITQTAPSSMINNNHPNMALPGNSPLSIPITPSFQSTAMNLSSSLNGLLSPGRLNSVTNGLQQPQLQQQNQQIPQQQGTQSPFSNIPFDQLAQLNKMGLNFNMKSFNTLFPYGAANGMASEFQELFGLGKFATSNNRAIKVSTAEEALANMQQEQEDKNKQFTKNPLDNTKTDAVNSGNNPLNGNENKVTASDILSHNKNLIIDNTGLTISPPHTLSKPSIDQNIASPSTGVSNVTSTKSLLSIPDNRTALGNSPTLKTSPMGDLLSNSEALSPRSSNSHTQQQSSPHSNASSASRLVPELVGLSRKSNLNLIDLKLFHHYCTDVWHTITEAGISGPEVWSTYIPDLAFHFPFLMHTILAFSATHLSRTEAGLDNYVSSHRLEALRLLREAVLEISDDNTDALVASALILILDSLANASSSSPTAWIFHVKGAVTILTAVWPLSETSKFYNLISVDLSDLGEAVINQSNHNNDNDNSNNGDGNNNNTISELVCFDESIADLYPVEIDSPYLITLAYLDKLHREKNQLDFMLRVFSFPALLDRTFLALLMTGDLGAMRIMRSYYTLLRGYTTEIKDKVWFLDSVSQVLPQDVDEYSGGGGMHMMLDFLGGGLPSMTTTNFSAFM
Summary of the method: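 Yeast transcription factors carrying a GST tag, as full-length proteins or DNA-binding domains, were produced by PURExpress in vitro transcription/translation. About 100-200 nM protein was applied to universal all-10-mer Agilent arrays, double-stranded by primer extension on fresh or once-stripped slides. Bound protein was detected with fluorescent anti-GST, and scans were normalised with masliner. The Universal PBM Analysis Suite gave each ungapped eight-base word, pooled with its reverse complement, an E-score, a modified Wilcoxon-Mann-Whitney statistic.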

Row | Sequence | PBM E-score
1 | ATGCAGGC | -0.172
2 | ATTCCACC | -0.104
3 | ACTGACAC | -0.0886
4 | AAGGGAAT | -0.0433
5 | GAGCCGAA | 0.0885
6 | ATCGAAGA | 0.0933
7 | GCCCCCAC | -0.354
8 | CTCCTCTC | -0.0778
9 | TTCCACAA | -0.0103
10 | TACAGCCA | -0.127
11 | CGTAATAA | 0.247
12 | CGCACTAA | 0.212
13 | ACGAGGAC | 0.42
14 | CGTATCGC | 0.35
15 | CGGATCAC | 0.0711
16 | GCCTTACA | -0.112
17 | TATACGGA | 0.439
18 | CCCTTTAA | -0.0773
19 | AGACAGCC | -0.0609
20 | CCACCGTC | -0.179
21 | TATGCTAA | -0.0579
22 | AGTAAGCG | 0.0638
23 | AAGTTCTC | 0.0253

Row | Sequence | PBM E-score
24 | AAGTACCG | 0.152
25 | CACGCCTG | -0.335
26 | CTGAACGA | 0.456
27 | ATGCCGTA | 0.335
28 | CGCATTGC | 0.00365
29 | GTCACATA | 0.033
30 | AACCGATC | 0.174
31 | CTCCGGCC | -0.256
32 | CACACACC | -0.0532
33 | CTCTCTCA | -0.283
34 | CATCTCAC | -0.0428
35 | ACATCGTG | 0.0443
36 | AAGGATTG | -0.186
37 | AGCACCAA | -0.248
38 | AAGTTTGT | -0.176
39 | CCATCCGC | 0.111
40 | CCCGTAAA | 0.32
41 | CATATTAG | 0.0639
42 | AGGCTCCA | -0.369
43 | GTATGTAA | 0.209
44 | GACCGGTC | -0.0983
45 | GACCTTCC | -0.106
46 | ACACGGAC | 0.0435

Row | Sequence | PBM E-score
47 | CACAATTA | 0.117
48 | ATTCCTGG | -0.248
49 | GCGGCCAA | -0.0853
50 | GAAGGGGA | -0.285
51 | ATTACTAG | -0.234
52 | ACATGGGA | -0.0526
53 | GGCTTGTA | -0.0785
54 | GTAATCAC | 0.0227
55 | AGCGCACA | -0.0159
56 | CCGATCAG | 0.089
57 | TACCCAGA | 0.0597
58 | CACGCGTG | -0.0524
59 | ATCGGGAA | 0.086
60 | CGTAGTTA | 0.191
61 | AACCGTAC | 0.36
62 | CCCCGTTC | 0.344
63 | ACGTTAAT | 0.173
64 | CACCGAAC | -0.0353
65 | GATAAGCC | -0.17
66 | ACCCACCG | -0.0166
67 | CCGCTCCA | 0.121
